US20250270341A1 (Alector, published 2025)
Each block holds one binder with its values, some of them ahead of it.

Legend:
Experiment in all cases: ELISA, 1 ug/ml
[1] = molecular target: T1, Cyno CD98hc ECD Avi-His (cynomolgus macaque, UniProt P08195 105-529 (human entry))
T1 construct: biotinylated on the Avi tag where captured on streptavidin; also called Cyno CD98-AVI-His; Cyno CD98hc-AVI-His
T1 chain: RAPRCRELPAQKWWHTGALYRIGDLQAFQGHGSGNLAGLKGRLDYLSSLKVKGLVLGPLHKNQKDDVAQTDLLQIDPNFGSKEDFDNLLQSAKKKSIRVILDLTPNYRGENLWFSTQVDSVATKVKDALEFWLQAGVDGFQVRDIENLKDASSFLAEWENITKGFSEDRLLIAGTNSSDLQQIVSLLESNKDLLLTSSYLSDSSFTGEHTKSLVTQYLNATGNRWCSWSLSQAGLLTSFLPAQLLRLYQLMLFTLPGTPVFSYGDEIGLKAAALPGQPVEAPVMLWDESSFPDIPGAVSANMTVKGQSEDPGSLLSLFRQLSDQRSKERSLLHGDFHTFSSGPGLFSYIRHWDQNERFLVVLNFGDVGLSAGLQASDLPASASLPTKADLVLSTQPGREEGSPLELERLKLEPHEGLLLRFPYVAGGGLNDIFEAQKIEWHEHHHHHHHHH

[2] = molecular target: T2, Human TfR-AVI-His (control) (human, UniProt P02786)
T2 construct: control protein; also called Avi-His-tagged human TfR; human transferrin receptor
T2 sequence (P02786 89-760 limits assumed): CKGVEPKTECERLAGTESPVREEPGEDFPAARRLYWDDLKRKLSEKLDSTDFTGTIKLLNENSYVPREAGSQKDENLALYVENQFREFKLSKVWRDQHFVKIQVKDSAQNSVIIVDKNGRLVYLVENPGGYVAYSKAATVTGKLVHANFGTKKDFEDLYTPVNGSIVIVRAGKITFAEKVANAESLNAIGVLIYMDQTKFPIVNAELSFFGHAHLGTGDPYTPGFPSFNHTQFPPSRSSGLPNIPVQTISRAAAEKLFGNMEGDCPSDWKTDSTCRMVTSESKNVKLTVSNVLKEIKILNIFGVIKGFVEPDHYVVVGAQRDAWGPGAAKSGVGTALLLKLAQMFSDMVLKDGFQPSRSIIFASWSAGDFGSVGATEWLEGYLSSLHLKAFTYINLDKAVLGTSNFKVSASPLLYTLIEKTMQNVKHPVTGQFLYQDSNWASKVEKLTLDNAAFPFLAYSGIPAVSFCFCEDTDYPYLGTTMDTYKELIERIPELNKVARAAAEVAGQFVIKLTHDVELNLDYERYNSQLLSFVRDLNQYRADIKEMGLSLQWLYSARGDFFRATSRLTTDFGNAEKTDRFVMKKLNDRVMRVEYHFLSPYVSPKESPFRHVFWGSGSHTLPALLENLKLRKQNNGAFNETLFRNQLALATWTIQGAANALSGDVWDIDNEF

[3] = molecular target: T3, muCD98hc ECD Avi-His (mouse, UniProt P10852 100-526)
T3 construct: biotinylated on the Avi tag where captured on streptavidin; also called Mouse CD98-AVI-His; Mouse CD98hc-AVI-His
T3 sequence: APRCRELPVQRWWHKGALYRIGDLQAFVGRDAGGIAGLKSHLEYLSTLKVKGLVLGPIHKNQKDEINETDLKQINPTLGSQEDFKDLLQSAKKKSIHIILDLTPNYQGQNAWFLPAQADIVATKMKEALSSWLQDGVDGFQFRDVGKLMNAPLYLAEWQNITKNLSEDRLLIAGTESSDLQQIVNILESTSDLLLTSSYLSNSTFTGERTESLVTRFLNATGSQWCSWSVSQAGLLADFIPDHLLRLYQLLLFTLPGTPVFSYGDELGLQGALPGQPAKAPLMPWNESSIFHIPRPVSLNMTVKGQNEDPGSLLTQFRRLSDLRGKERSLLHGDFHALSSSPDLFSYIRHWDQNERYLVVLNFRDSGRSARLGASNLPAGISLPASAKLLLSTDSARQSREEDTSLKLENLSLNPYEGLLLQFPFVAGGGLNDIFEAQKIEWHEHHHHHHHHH

[4] = molecular target: T4, huCD98hc ECD Avi-His (human, UniProt P08195 105-529)
T4 construct: biotinylated on the Avi tag where captured on streptavidin; also called Human CD98-AVI-His; Human CD98hc-AVI-His
T4 sequence: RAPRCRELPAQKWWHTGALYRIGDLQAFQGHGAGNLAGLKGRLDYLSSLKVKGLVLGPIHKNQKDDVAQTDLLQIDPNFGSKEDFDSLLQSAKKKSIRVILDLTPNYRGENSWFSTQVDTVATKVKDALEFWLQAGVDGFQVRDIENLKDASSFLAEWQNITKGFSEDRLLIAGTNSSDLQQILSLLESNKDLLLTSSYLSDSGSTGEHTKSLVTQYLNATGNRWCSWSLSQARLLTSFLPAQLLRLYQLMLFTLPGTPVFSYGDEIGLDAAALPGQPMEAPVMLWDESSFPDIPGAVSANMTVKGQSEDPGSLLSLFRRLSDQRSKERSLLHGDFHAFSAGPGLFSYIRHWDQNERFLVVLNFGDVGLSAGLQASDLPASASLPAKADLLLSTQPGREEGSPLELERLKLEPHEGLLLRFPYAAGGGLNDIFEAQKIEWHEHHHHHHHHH

B1: CD98hc.04.011 (2+1 bispecific antibody) (bispecific antibody)
heavy 1: EVRLLESGGGLVQPGGSLRLSCAASGFTFSNYAMGWVRQAPGKGLEWVSAISGSGGSTYYADSVKGRFTTSRDDSKNALYLQMNSLRAEDTAVYYCARGGPGWYAADVWGQGTTVTVSSASTKGPSVFPLAPSSKSTSGGTAALGCLVKDYFPEPVTVSWNSGALTSGVHTFPAVLQSSGLYSLSSVVTVPSSSLGTQTYICNVNHKPSNTKVDKKV[here human IgG1 Fc with changes without letters]GGGGSGGGGSGGGGSDVQLQESGPDLVKPSQSLSLTCSVTVYSFTSVYSWHWIRQFPGNKLEWMGYIHDSGTTNYNPSLKSRISVTRDTSKNQFFLQLNSVTTEDTATYYCARGRPYGYDGFAYWGQGTLVTVSAGGSEGKSSGSGSESKSTGGSDIQMTQSSSYLSVSLGDRVTITCKASDHINNWLAWYQQKPGNAPRLLITGAVNLETGVPSRFSGSGSGKDYTLSITSLQTEDVATYYCQQYWSIPRTFGGGTNLEIK
heavy 2: EVRLLESGGGLVQPGGSLRLSCAASGFTFSNYAMGWVRQAPGKGLEWVSAISGSGGSTYYADSVKGRFTTSRDDSKNALYLQMNSLRAEDTAVYYCARGGPGWYAADVWGQGTTVTVSS[here human IgG1 constant region with changes without letters]
light: DIQMTQSPSSLSASVGDRVTITCRASQSISSYLNWYQQKPGKAPKLLIYAASSLQSGVPSRFSGSGSGTDFTLTISSLQPEDFATYYCQQADLPAFAFGGGTKVEIKRTVAAPSVFIFPPSDEQLKSGTASVVCLLNNFYPREAKVQWKVDNALQSGNSQESVTEQDSKDSTYSLSSTLTLSKADYEKHKVYACEVTHQGLSSPVTKSFNRGEC
ELISA fold-change relative to isotype hIgG [1]: 2.1
ELISA fold-change relative to isotype hIgG [2]: 1.2
ELISA fold-change relative to isotype hIgG [3]: 1.4
ELISA fold-change relative to isotype hIgG [4]: 2.7

B2: CD98hc.04.013 (2+1 bispecific antibody) (bispecific antibody)
heavy 1: EVRLLESGGGLVQPGGSLRLSCAASGFTFSNYAMGWVRQAPGKGLEWVSAISGSGGSTYYADSVKGRFTTSRDDSKNALYLQMNSLRAEDTAVYYCARGGPGWYAADVWGQGTTVTVSSASTKGPSVFPLAPSSKSTSGGTAALGCLVKDYFPEPVTVSWNSGALTSGVHTFPAVLQSSGLYSLSSVVTVPSSSLGTQTYICNVNHKPSNTKVDKKV[here human IgG1 Fc with changes without letters]GGGGSGGGGSGGGGSEVQLVESGGDLGMPGGSLKLSCAASGFALSGYDMSWVRQTPDKRLEWVAYLSSGGGSTYYPYTVKGRFTISRDNAQNTLYLQMSSLKSEDTAIYYCARHSEVRPWFGYWGQGTLVTVSAGGSEGKSSGSGSESKSTGGSDIVMSQSPSSLAVSVGEKVTLTCKSSQSLLYSGNQKNYLAWYQQNPGQSPKLLIYWASTRESGVPDRFTGSGSGTDFTLTISSVKAEDLAVYYCQQYYTYPPTFGAGTKLGLK
heavy 2: EVRLLESGGGLVQPGGSLRLSCAASGFTFSNYAMGWVRQAPGKGLEWVSAISGSGGSTYYADSVKGRFTTSRDDSKNALYLQMNSLRAEDTAVYYCARGGPGWYAADVWGQGTTVTVSS[here human IgG1 constant region with changes without letters]
light: B1 light
ELISA fold-change relative to isotype hIgG [1]: 23.6
ELISA fold-change relative to isotype hIgG [2]: 1.6
ELISA fold-change relative to isotype hIgG [3]: 2
ELISA fold-change relative to isotype hIgG [4]: 23.8

B6: CD98hc.04.045 (2+1 bispecific antibody) (bispecific antibody)
heavy 1: EVRLLESGGGLVQPGGSLRLSCAASGFTFSNYAMGWVRQAPGKGLEWVSAISGSGGSTYYADSVKGRFTTSRDDSKNALYLQMNSLRAEDTAVYYCARGGPGWYAADVWGQGTTVTVSSASTKGPSVFPLAPSSKSTSGGTAALGCLVKDYFPEPVTVSWNSGALTSGVHTFPAVLQSSGLYSLSSVVTVPSSSLGTQTYICNVNHKPSNTKVDKKV[here human IgG1 Fc with changes without letters]GGGGSGGGGSGGGGSQIQLVQSGPELKKPGETVKISCKASGYSITNFGMNWVKQAPGKGLKWMGWVNTYTGEPTYADDFKGRFAFSLETSASTASLQINNLKNEDTATYFCTRSVITYTMDYWGQGTSVTVSSGGSEGKSSGSGSESKSTGGSDIQLTQSPSSLSASLGERVSLTCRASQEISGYLSWLQQKPDGTIKRLIYAASTLDSGVPKRFSGSRSGSDYSLTISSLESEDFADYYCLQYASYPRTFGGGTKVEIK
heavy 2: EVRLLESGGGLVQPGGSLRLSCAASGFTFSNYAMGWVRQAPGKGLEWVSAISGSGGSTYYADSVKGRFTTSRDDSKNALYLQMNSLRAEDTAVYYCARGGPGWYAADVWGQGTTVTVSS[here human IgG1 constant region with changes without letters]
light: B1 light
ELISA fold-change relative to isotype hIgG [1]: 20.1
ELISA fold-change relative to isotype hIgG [2]: 1.1
ELISA fold-change relative to isotype hIgG [3]: 1.1
ELISA fold-change relative to isotype hIgG [4]: 21.9

Continued, values first:

ELISA fold-change relative to isotype hIgG [1]: 22.7
ELISA fold-change relative to isotype hIgG [2]: 1.1
ELISA fold-change relative to isotype hIgG [3]: 1.1
ELISA fold-change relative to isotype hIgG [4]: 23.6
B3: CD98hc.04.018 (2+1 bispecific antibody) (bispecific antibody)
heavy 1: EVRLLESGGGLVQPGGSLRLSCAASGFTFSNYAMGWVRQAPGKGLEWVSAISGSGGSTYYADSVKGRFTTSRDDSKNALYLQMNSLRAEDTAVYYCARGGPGWYAADVWGQGTTVTVSSASTKGPSVFPLAPSSKSTSGGTAALGCLVKDYFPEPVTVSWNSGALTSGVHTFPAVLQSSGLYSLSSVVTVPSSSLGTQTYICNVNHKPSNTKVDKKV[here human IgG1 Fc with changes without letters]GGGGSGGGGSGGGGSQIQLVQSGPELKKPGETVKISCKASGYTFRNYGMNWVKQAPGKGLKWMGWINTYTGEPTYAEDFKGRFAFSLETSASTAYLQINKLKNEDEATYFCARGEAHWYFDVWGAGTTVTVSSGGSEGKSSGSGSESKSTGGSQIVLTQSPAIMSASLGERVTMTCTASSSVSSSYLYWYQQKPGSSPKLWIYSIFNLASGVPARFSGSGSGTSYSLTISSMEAEDAATYYCHQYHRSPPTFGGGTKLEIK
heavy 2: EVRLLESGGGLVQPGGSLRLSCAASGFTFSNYAMGWVRQAPGKGLEWVSAISGSGGSTYYADSVKGRFTTSRDDSKNALYLQMNSLRAEDTAVYYCARGGPGWYAADVWGQGTTVTVSS[here human IgG1 constant region with changes without letters]
light: B1 light

ELISA fold-change relative to isotype hIgG [1]: 21.4
ELISA fold-change relative to isotype hIgG [2]: 1.3
ELISA fold-change relative to isotype hIgG [3]: 1.5
ELISA fold-change relative to isotype hIgG [4]: 29.2
B4: CD98hc.04.012 (2+1 bispecific antibody) (bispecific antibody)
heavy 1: EVRLLESGGGLVQPGGSLRLSCAASGFTFSNYAMGWVRQAPGKGLEWVSAISGSGGSTYYADSVKGRFTTSRDDSKNALYLQMNSLRAEDTAVYYCARGGPGWYAADVWGQGTTVTVSSASTKGPSVFPLAPSSKSTSGGTAALGCLVKDYFPEPVTVSWNSGALTSGVHTFPAVLQSSGLYSLSSVVTVPSSSLGTQTYICNVNHKPSNTKVDKKV[here human IgG1 Fc with changes without letters]GGGGSGGGGSGGGGSQVQLQQSGADLVRPGDSVKISCKGSGYTFTDNTLHWVKQSHAKSLEWIGVISPYYGDASYNQKFKGKATMTVDKSSSTAYMELARLTSEDSAIYYCARVGGRLRLGYYFDHWGQGTTLTVSSGGSEGKSSGSGSESKSTGGSNIMMTQSPSSLAVSAGEKVTMNCKSSQSVLSSSNQKNYLAWYQQKPGQSPKLLIYWASTRESGVPARFTGSGSGTDFSLTITSVQAEDLAVYYCLQYLSSYTFGGGTKLEIK
heavy 2: EVRLLESGGGLVQPGGSLRLSCAASGFTFSNYAMGWVRQAPGKGLEWVSAISGSGGSTYYADSVKGRFTTSRDDSKNALYLQMNSLRAEDTAVYYCARGGPGWYAADVWGQGTTVTVSS[here human IgG1 constant region with changes without letters]
light: B1 light

ELISA fold-change relative to isotype hIgG [1]: 12.6
ELISA fold-change relative to isotype hIgG [2]: 1.2
ELISA fold-change relative to isotype hIgG [3]: 1.1
ELISA fold-change relative to isotype hIgG [4]: 19.6
B5: CD98hc.04.022 (2+1 bispecific antibody) (bispecific antibody)
heavy 1: EVRLLESGGGLVQPGGSLRLSCAASGFTFSNYAMGWVRQAPGKGLEWVSAISGSGGSTYYADSVKGRFTTSRDDSKNALYLQMNSLRAEDTAVYYCARGGPGWYAADVWGQGTTVTVSSASTKGPSVFPLAPSSKSTSGGTAALGCLVKDYFPEPVTVSWNSGALTSGVHTFPAVLQSSGLYSLSSVVTVPSSSLGTQTYICNVNHKPSNTKVDKKV[here human IgG1 Fc with changes without letters]GGGGSGGGGSGGGGSEVQLQQSGAELVKPGASVKLSCTASGFNIKDTFMHWMKQRPEQGLEWIGRIDPANANTRYDPKFQGKATITTDTSSNTAYLQLSSLTSEDTAVYYCARDVYYDVWGAGTTVTVSSGGSEGKSSGSGSESKSTGGSDILMTQSPSSMSVSLGDTVTITCHASQGISSNIGWLQQKPGRSFKGLIYHGSNLEDGVPSRFTGSGSGTDYSLTISGLESEDFADYYCVQYAQFPRTFGGGTKLEIQ
heavy 2: EVRLLESGGGLVQPGGSLRLSCAASGFTFSNYAMGWVRQAPGKGLEWVSAISGSGGSTYYADSVKGRFTTSRDDSKNALYLQMNSLRAEDTAVYYCARGGPGWYAADVWGQGTTVTVSS[here human IgG1 constant region with changes without letters]
light: B1 light
